Measurements as given in PubChem BioAssay AID1645887 (National Center for Advancing Translational Sciences (NCATS), 2021).
Values joined by “and” are separate entries in the source; they are usually repeats but may differ in a detail not shown here. Equal values may be shown once. Hit rate of the full screen: of about 16,000 compounds, about 40 (0.2%) were called active. Roughly 1% stayed inconclusive and do not appear here. The call rests on the fitted dose curve; in most records, active means well fitted activation curve with a large enough effect; inconclusive means small, poorly fitted or top-dose-only effect, or another doubt; inactive means no such curve, though single readings can be large or run the other way. This is one part of the list.

Each compound was assayed against Rap guanine nucleotide exchange factor 4 (Homo sapiens) (UniProt Q8WZA2) (assay: Validation qHTS for agonist of cAMP-regulated guanine nucleotide exchange factor 4 (EPAC2)). Details: EPAC2 Rap1B BODIPY-GDP exchange, fluorescence; activation: active compounds read high.
Chain of UniProt Q8WZA2 (Q8WZA2 whole entry, looked up): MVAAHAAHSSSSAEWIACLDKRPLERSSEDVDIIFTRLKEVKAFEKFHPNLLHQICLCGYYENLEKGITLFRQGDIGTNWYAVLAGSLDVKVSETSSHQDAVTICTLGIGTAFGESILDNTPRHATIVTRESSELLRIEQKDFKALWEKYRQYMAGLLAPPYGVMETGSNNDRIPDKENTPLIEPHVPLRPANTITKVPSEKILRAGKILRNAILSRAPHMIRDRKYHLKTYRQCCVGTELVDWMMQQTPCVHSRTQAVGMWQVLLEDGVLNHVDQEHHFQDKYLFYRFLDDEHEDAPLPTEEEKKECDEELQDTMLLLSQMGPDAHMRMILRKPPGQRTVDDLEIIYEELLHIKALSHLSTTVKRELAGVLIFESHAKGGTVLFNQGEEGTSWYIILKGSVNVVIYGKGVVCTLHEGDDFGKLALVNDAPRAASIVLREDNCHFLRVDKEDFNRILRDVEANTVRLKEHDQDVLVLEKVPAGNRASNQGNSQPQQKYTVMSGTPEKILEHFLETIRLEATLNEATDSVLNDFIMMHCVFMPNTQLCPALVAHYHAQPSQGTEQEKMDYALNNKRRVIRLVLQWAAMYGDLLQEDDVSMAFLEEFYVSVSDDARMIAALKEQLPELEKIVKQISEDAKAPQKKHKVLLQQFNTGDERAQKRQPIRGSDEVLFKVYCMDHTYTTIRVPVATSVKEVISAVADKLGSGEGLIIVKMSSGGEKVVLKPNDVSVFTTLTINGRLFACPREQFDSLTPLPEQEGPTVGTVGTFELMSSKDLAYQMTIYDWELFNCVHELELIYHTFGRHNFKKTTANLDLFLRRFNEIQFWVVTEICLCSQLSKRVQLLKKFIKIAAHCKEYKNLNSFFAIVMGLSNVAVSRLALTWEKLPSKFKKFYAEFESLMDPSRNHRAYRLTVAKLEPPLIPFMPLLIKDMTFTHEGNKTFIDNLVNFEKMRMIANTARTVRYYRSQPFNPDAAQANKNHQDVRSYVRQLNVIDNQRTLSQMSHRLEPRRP
In short: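 Signal normalized against 6.5 mM cAMP as agonist control. Mix of EPAC2 (100 nM), RAP1B-BODIPY-GDP (250 nM) and GDP (50 uM) was read kinetically at 480/540 nm, every 5 min over 30 min, after 5 min room-temperature incubation with compound.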
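Further: exchange makes BODIPY-GDP fluorescence drop when released from Rap1B; series mostly up to about 150 µM.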
On the % scale 0 is the no-effect control and ±100 the full control effect.

activation, inactive:
COc1ccc(C(=O)N2CCC3(CC2)CN(CC(C)C)C3)cc1 -7.79%
CCn1c(-c2ccccc2F)nc2cc(NC(C)=O)cc(C(=O)NC(c3ccccn3)C(F)(F)F)c21 (stereo not given) -4.56%
COc1cccc(-c2cc(NCc3ccccc3)ncn2)c1 -14%
C[C@H](NC(CCc1ccccc1)C(=O)O)C(=O)N1CCC[C@H]1C(=O)O (stereo not given in full) -9.28%
CN(C)Cc1ccccc1-c1cc(NCc2cccs2)ncn1 8.64%
O=C(c1ccco1)N1CCC[C@@]2(CCN(Cc3ccccc3)C2)C1 -8.15%
COc1ccc(CN2CCc3nnc(CCc4ccccc4)n3CC2)c(OC)c1C 2.73%
N[C@H](C(=O)O)C1C(C(=O)O)C1C(=O)O (stereo not given in full) 4.96%
O=C1CCC[C@@H]2CC(Nc3ccccc3)C[C@@H]3CCN1[C@H]23 (stereo not given in full) -15.2%
COC1=C(C(=O)O)N2C(=O)[C@@H](NC(=O)[C@H](N)C3=CCC=CC3)[C@H]2SC1 -3.84%
O=[N+]([O-])c1cccc(CN2C[C@@]34C=C[C@@H](C[C@@H]3S2(=O)=O)O4)c1 -1.69%
COc1ccc(NC(=O)[C@@H]2CC=C[C@@H]3CCN(C4CCCCC4)C(=O)[C@@H]32)cc1 -22.2%
O=C(O)CCc1cccnc1 -35.3%
NS(=O)(=O)c1cc(Cl)c(Cl)c(S(N)(=O)=O)c1 -19.5%
CC(=C\c1ccccc1)/C=C1/SC(=S)N(CC(=O)O)C1=O -26.2%
COc1c(C)c2c(c(O)c1C/C=C(\C)CCC(=O)O)C(=O)OC2 -3.46% [middle of 4 runs]
COc1ccc(Oc2ncc3nc(-c4ccc(OC)cc4)c(=O)n(C4CC4)c3n2)cc1 -3.69%
Clc1ccccc1-c1nc(-c2ccncc2)no1 -7.33%
COC(=O)[C@@H]1C[C@H](NC(=O)c2cc(C(F)(F)F)ccc2Cl)CN1Cc1cccc(O)c1 -2.26%
O=C(O)c1ccc(S(=O)(=O)N(Cl)Cl)cc1 10.5%
O=C(Oc1ccccc1C(=O)O)c1ccccc1O -13.5%
O=C(O)C[C@H]1c2cc(F)ccc2S(=O)(=O)N1C1CCCC1 -22.1%
Cc1ccc(-n2cc(CCCCCCCCC(=O)O)nn2)cc1 -7.24%
Nc1ccc(C(=O)O)cc1 3.68% and 9.09%
CN1CCN(c2ncc3nc(-c4cc(F)cc(F)c4)c(=O)n(-c4ccccc4)c3n2)CC1 -27%
